Source: the supplement of paper PMC4604168 (melanoma cell lines)
The list shows a part of the results. Most values come without repeats; read them as rough.

How the values were obtained:
Assay in all cases: cell count relative to DMSO control; melanoma cells; higher = more viable cells
Conditions in all cases: library dose: standard library concentration; 72 h
G361 = test system: G361
IPC-298 = test system: IPC-298
IST-MEL1 = test system: IST-MEL1
LB2518-MEL = test system: LB2518-MEL
LOXIMVI = test system: LOXIMVI
MEL-HO = test system: MEL-HO
MZ2-MEL = test system: MZ2-MEL
MeWo = test system: MeWo
RPMI7951 = test system: RPMI7951
RVH-421 = test system: RVH-421
SkMel28 = test system: SkMel28
SkMel2 = test system: SkMel2
SkMel30 = test system: SkMel30
SkMel5 = test system: SkMel5
UACC257 = test system: UACC257
UACC62 = test system: UACC62
WM115 = test system: WM115
WM1716 = test system: WM1716
WM1745 = test system: WM1745
WM3526 = test system: WM3526
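Also: cells treated in 1,536-well plates, then fixed and DAPI-stained, with nuclei counted from automated high-throughput microscope images.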

SMILES | cell count (G361) [%] | cell count (IPC-298) [%] | cell count (IST-MEL1) [%] | cell count (LB2518-MEL) [%] | cell count (LOXIMVI) [%] | cell count (MEL-HO) [%] | cell count (MZ2-MEL) [%] | cell count (MeWo) [%] | cell count (RPMI7951) [%] | cell count (RVH-421) [%] | cell count (SkMel28) [%] | cell count (SkMel2) [%] | cell count (SkMel30) [%] | cell count (SkMel5) [%] | cell count (UACC257) [%] | cell count (UACC62) [%] | cell count (WM115) [%] | cell count (WM1716) [%] | cell count (WM1745) [%] | cell count (WM3526) [%]
C[C@@H](Oc1cc(-c2cnn(C3CCNCC3)c2)cnc1N)c1c(Cl)ccc(F)c1Cl [Crizotinib] + OCc1c[nH]c2ccccc12 [Indole-3-carbinol] (first compound 1 µM, partner dose 4 µM) | 81.9 | 75 | 94 | 79.6 | 157 | 90.6 | 102 | 73.8 | 83.9 | 94.6 | 52.1 | 73.9 | 82.3 | 66.1 | 89.3 | 76 | 53.9 | 83.2 | 72 | 70.9
CS(=O)(=O)CCNCc1ccc(-c2ccc3ncnc(Nc4ccc(OCc5cccc(F)c5)c(Cl)c4)c3c2)o1 [lapatinib] + Cn1nnc2c(C(N)=O)ncn2c1=O [temozolomide] (first compound 4 µM, partner dose 10 µM) | 46.6 | 78.9 | 71.2 | 82.9 | 64 | 71.7 | 52.4 | 71.7 | 25.3 | 87.8 | 33.5 | 79.7 | 79.7 | 76.2 | 97.8 | 50.7 | 73.7 | 69.1 | 78.5 | 72.4
CN1CCN(c2ccc3nc(-c4c(N)c5c(F)cccc5[nH]c4=O)[nH]c3c2)CC1 [Dovitinib] + COc1ccc(Cl)c(Nc2nc3ccccc3nc2NS(=O)(=O)c2cccc(NC(=O)C(C)(C)N)c2)c1 [XL147] (first compound 0.5 µM, partner dose 4 µM) | 74.3 | 72 | 49.1 | 53.4 | 145 | 69.6 | 55.1 | 62.3 | 80.3 | 83.6 | 65.4 | 101 | 92.5 | 70.5 | 71.4 | 74.8 | 83 | 69.7 | 66.2 | 101
CNC(=O)c1cc(Oc2ccc(NC(=O)Nc3ccc(Cl)c(C(F)(F)F)c3)cc2)ccn1 [sorafenib] + OCCn1cc(-c2cnc3nnn(Cc4ccc5ncccc5c4)c3n2)cn1 [PF04217903] (first compound 2 µM, partner dose 5 µM) | 90.3 | 96.1 | 84.2 | 75.8 | 91.5 | 98.7 | 110 | 74 | 63.3 | 102 | 88.8 | 86.9 | 104 | 66.1 | 97.3 | 100 | 80.6 | 85.5 | 70.4 | 85
CNC(=O)c1cc(Oc2ccc(NC(=O)Nc3ccc(Cl)c(C(F)(F)F)c3)cc2)ccn1 [sorafenib] + CS(=O)(=O)CCNCc1ccc(-c2ccc3ncnc(Nc4ccc(OCc5cccc(F)c5)c(Cl)c4)c3c2)o1 [lapatinib] (first compound 2 µM, partner dose 4 µM) | 45.8 | 76.9 | 86.6 | 73.1 | 150 | 60.4 | 62.7 | 57.4 | 33.4 | 78.3 | 70.8 | 82.5 | 50.1 | 48.5 | 70.4 | 41.2 | 73.8 | 106 | 92.7 | 64.9
CNC(=O)c1cc(Oc2ccc(NC(=O)Nc3ccc(Cl)c(C(F)(F)F)c3)cc2)ccn1 [sorafenib] + Cn1c(Nc2ccc(C(F)(F)F)cc2)nc2cc(Oc3ccnc(-c4ncc(C(F)(F)F)[nH]4)c3)ccc21 [CHIR265] (first compound 2 µM, partner dose 0.4 µM) | 32.1 | 43.1 | 79 | 41.7 | 73 | 67 | 67.2 | 61 | 27.5 | 34.2 | 38 | 46.8 | 62 | 20.7 | 76.6 | 33.9 | 43.2 | 65.2 | 58.5 | 45.2
CS(=O)(=O)CCNCc1ccc(-c2ccc3ncnc(Nc4ccc(OCc5cccc(F)c5)c(Cl)c4)c3c2)o1 [lapatinib] + C=CCNC1=C2C[C@@H](C)C[C@H](OC)[C@H](O)[C@@H](C)/C=C(\C)[C@H](OC(N)=O)[C@@H](OC)/C=C\C=C(/C)C(=O)NC(=CC1=O)C2=O [Tanespimycin] (first compound 4 µM, partner dose 0.01 µM) | 36.4 | 90.7 | 43.1 | 86.5 | 76.1 | 71.1 | 70 | 71 | 5.51 | 91.9 | 46.4 | 97.2 | 95.9 | 57 | 84.4 | 44.2 | 41.9 | 77.2 | 57.3 | 81.5
CN1CCN(c2ccc3nc(-c4c(N)c5c(F)cccc5[nH]c4=O)[nH]c3c2)CC1 [Dovitinib] + CC1(C)NC(=O)N(c2ccc([N+](=O)[O-])c(C(F)(F)F)c2)C1=O [nilutamide] (first compound 0.5 µM, partner dose 5 µM) | 61.2 | 80.1 | 74.8 | 58.9 | 92.7 | 80.3 | 67.7 | 49.9 | 101 | 102 | 82.6 | 76.2 | 81 | 93 | 106 | 67.4 | 71.7 | 87.2 | 66.2 | 84.4
C[C@@H](Oc1cc(-c2cnn(C3CCNCC3)c2)cnc1N)c1c(Cl)ccc(F)c1Cl [Crizotinib] + Cn1c(Nc2ccc(C(F)(F)F)cc2)nc2cc(Oc3ccnc(-c4ncc(C(F)(F)F)[nH]4)c3)ccc21 [CHIR265] (first compound 1 µM, partner dose 0.4 µM) | 30.6 | 45.6 | 91.4 | 32.7 | 99.2 | 57.6 | 59.5 | 59.6 | 42.8 | 57.6 | 30 | 45.8 | 61.8 | 31.6 | 79 | 49.1 | 31.5 | 79.1 | 38.8 | 48.6
CN1CCN(c2ccc3nc(-c4c(N)c5c(F)cccc5[nH]c4=O)[nH]c3c2)CC1 [Dovitinib] + CO[C@@H]1[C@H](N(C)C(=O)c2ccccc2)C[C@H]2O[C@]1(C)n1c3ccccc3c3c4c(c5c6ccccc6n2c5c31)C(=O)NC4 [Midostaurin] (first compound 0.5 µM, partner dose 0.4 µM) | 40.5 | 67.8 | 56.3 | 52 | 28.9 | 68.5 | 47.1 | 44.7 | 52.4 | 74.2 | 57.9 | 38 | 95.2 | 50.9 | 80.1 | 55.1 | 39.9 | 68.2 | 33.6 | 79.4
C=CCNC1=C2C[C@@H](C)C[C@H](OC)[C@H](O)[C@@H](C)/C=C(\C)[C@H](OC(N)=O)[C@@H](OC)/C=C\C=C(/C)C(=O)NC(=CC1=O)C2=O [Tanespimycin] + Cc1cc(N2CCOCC2)cc2[nH]c(-c3c(NC[C@@H](O)c4cccc(Cl)c4)cc[nH]c3=O)nc12 [BMS536924] (first compound 0.01 µM, partner dose 1 µM) | 62.8 | 101 | 59.8 | 67.9 | 74.7 | 87.8 | 124 | 69.8 | 21.3 | 83.6 | 59.7 | 76.1 | 80 | 65.9 | 82.2 | 79.9 | 25.6 | 84.3 | 49.3 | 70
CN1CCN(c2ccc3nc(-c4c(N)c5c(F)cccc5[nH]c4=O)[nH]c3c2)CC1 [Dovitinib] + NCC(=O)Nc1ccc(-n2nc(C(F)(F)F)cc2-c2ccc3c(ccc4ccccc43)c2)cc1 [OSU03012] (first compound 0.5 µM, partner dose 5 µM) | 42.1 | 42.2 | 51.1 | 56 | 65.5 | 70.8 | 38.5 | 51.8 | 85.9 | 75.3 | 23.2 | 26.7 | 42.8 | 41.3 | 68.5 | 39.7 | 53.6 | 46.2 | 41.8 | 47.8
CS(=O)(=O)CCNCc1ccc(-c2ccc3ncnc(Nc4ccc(OCc5cccc(F)c5)c(Cl)c4)c3c2)o1 [lapatinib] + CC(=O)c1c(C)c2cnc(Nc3ccc(N4CCNCC4)cn3)nc2n(C2CCCC2)c1=O [palbociclib] (first compound 4 µM, partner dose 0.2 µM) | 48.6 | 76.7 | 71.3 | 62.7 | 53.7 | 66.3 | 57.6 | 59.6 | 58.9 | 18 | 52.5 | 56.6 | 58.1 | 50.3 | 78.5 | 51.6 | 56.1 | 44.7 | 75 | 46.9
CS(=O)(=O)CCNCc1ccc(-c2ccc3ncnc(Nc4ccc(OCc5cccc(F)c5)c(Cl)c4)c3c2)o1 [lapatinib] + CN(NC(=O)CC(=O)NN(C)C(=S)c1ccccc1)C(=S)c1ccccc1 [STA4783] (first compound 4 µM, partner dose 0.03 µM) | 11.3 | 56.6 | 20.5 | 11.9 | 80.8 | 59.8 | 49.9 | 9.68 | 51.5 | 41.4 | 22.1 | 49 | 72.5 | 21.1 | 105 | 50.7 | 18.5 | 85.2 | 36.3 | 100
CNC(=O)c1cc(Oc2ccc(NC(=O)Nc3ccc(Cl)c(C(F)(F)F)c3)cc2)ccn1 [sorafenib] + C=CCNC1=C2C[C@@H](C)C[C@H](OC)[C@H](O)[C@@H](C)/C=C(\C)[C@H](OC(N)=O)[C@@H](OC)/C=C\C=C(/C)C(=O)NC(=CC1=O)C2=O [Tanespimycin] (first compound 2 µM, partner dose 0.01 µM) | 76.9 | 88.8 | 73.4 | 73.8 | 188 | 75.4 | 97.6 | 68.1 | 38.9 | 96.1 | 57.9 | 79.7 | 96.3 | 61.4 | 85.2 | 50.4 | 24.6 | 94.3 | 69.6 | 72.4
C=CCNC1=C2C[C@@H](C)C[C@H](OC)[C@H](O)[C@@H](C)/C=C(\C)[C@H](OC(N)=O)[C@@H](OC)/C=C\C=C(/C)C(=O)NC(=CC1=O)C2=O [Tanespimycin] + COc1cc(Nc2ncc(F)c(Nc3ccc4c(n3)NC(=O)C(C)(C)O4)n2)cc(OC)c1OC [Tamatinib] (first compound 0.01 µM, partner dose 2 µM) | 49.9 | 85.3 | 19.5 | 78.7 | 6.89 | 74.1 | 102 | 46.2 | 37.7 | 85.4 | 38.5 | 78.1 | 91.2 | 38.3 | 70.8 | 32.5 | 17 | 61.3 | 23 | 47.4
